The results in this text go back to paper PMC6042370.

Protein sequences, listed by entry. Tags and fused reporters are not part of them. Lines headed by an entry give the natural chain unless they say otherwise; changes in a name come on top.
UniProt O43791: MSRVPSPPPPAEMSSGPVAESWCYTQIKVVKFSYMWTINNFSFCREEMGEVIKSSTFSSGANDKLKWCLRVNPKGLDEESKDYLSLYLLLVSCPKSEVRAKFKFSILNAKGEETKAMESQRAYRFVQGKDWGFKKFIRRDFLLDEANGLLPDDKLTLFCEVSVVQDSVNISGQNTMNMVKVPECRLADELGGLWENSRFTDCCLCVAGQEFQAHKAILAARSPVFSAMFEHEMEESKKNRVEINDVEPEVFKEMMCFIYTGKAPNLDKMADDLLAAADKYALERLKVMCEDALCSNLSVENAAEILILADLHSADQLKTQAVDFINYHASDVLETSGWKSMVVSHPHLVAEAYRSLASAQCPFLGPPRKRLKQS

For assay [1], the target named is T1, FLAG-ATF2 (ATF2-WT) (human (cDNA from a 293T library)) (UniProt P15336).
T1 sequence: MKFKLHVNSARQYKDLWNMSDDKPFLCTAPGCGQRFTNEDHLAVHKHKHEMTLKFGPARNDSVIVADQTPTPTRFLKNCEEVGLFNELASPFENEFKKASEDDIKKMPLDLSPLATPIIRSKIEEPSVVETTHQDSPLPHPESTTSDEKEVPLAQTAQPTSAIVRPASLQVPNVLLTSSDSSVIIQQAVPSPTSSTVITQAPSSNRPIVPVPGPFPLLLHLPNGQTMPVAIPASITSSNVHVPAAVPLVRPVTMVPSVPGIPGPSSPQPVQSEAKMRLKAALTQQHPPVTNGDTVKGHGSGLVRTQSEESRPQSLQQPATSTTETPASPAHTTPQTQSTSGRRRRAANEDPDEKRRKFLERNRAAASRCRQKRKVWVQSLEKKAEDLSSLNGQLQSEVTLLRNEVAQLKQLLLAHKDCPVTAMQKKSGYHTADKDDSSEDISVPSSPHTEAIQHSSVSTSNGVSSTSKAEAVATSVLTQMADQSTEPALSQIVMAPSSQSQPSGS
The assay can be described thus: co-IP; 293T cells co-transfected, lysed 24 h later in BC100 buffer; anti-FLAG M2 agarose overnight, elution with FLAG peptide, Western blot. Background: A western blot detects proteins with antibodies after separation by electrophoresis.

Assay [2] addresses T1, FLAG-ATF2 (ATF2-WT) (human (cDNA from a 293T library)). The assay can be described thus: co-IP; 293T cells transfected with wild-type SPOP and ATF2, with SPOP mutants (F125V, W131G or F133L) co-expressed; anti-FLAG IP, Western blot.
For assay [3], the target named is T2, endogenous ATF2 (C4-2 cells) (human (endogenous in C4-2)) (UniProt P15336).
T2 sequence: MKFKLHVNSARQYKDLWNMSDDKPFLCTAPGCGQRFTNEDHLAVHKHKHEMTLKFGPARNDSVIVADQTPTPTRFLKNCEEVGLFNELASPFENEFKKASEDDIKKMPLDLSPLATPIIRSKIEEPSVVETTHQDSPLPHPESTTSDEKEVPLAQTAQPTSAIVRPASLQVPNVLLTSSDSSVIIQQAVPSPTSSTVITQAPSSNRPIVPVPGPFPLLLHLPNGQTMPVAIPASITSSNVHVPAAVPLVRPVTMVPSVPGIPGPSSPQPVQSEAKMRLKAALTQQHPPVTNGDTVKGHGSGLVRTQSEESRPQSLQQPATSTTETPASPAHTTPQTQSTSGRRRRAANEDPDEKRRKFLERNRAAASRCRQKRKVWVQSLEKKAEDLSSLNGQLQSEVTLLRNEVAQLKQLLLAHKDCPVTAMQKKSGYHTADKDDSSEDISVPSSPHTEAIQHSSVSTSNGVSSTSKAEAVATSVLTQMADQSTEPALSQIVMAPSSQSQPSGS
The assay can be described thus: co-IP; endogenous proteins in C4-2 lysate, 20 uM MG132 for 8 h; IgG or anti-ATF2 antibody overnight at 4 C, protein A/G beads, Western blot.

The target of assay [4] is FLAG-SPOP (C4-2, lentiviral) (UniProt O43791). Kind of assay: co-IP; C4-2 cells infected with lentivirus expressing FLAG-SPOP or control, 20 uM MG132 for 8 h; anti-FLAG IP, Western blot of endogenous proteins.
The next assay concerns the target FLAG-SPOP (293T) (UniProt O43791). Kind of assay: co-IP; 293T cells co-transfected, lysed 24 h later in BC100 buffer; anti-FLAG M2 agarose overnight, elution with FLAG peptide, Western blot.

These are yes or no findings as the source states them, for the method shown. In cells and extracts the contact can be indirect. Some results given as binding are weak or reduced against the parent protein; the word gives no strength. For some assays here: Where a sequence is shown, tags or fusion partners need not be part of it.

In the case of “Myc-SPOP-W131G (from UniProt O43791 1-374)”, the binding entry in assay [1] is recorded as “no binding”.

With “Myc-SPOP-K129E (from UniProt O43791 1-374)”, in assay [1], the binding entry is given as “no binding”.

Regarding “Myc-SPOP-F102C (from UniProt O43791 1-374)”, the binding result in assay [1] is on record as “no binding”.

As to “Myc-SPOP-Y87C (from UniProt O43791 1-374)”, in assay [1], the binding result is listed as “binds”.

With “Myc-SPOP-F125V (from UniProt O43791 1-374)”, the binding result in assay [1] is recorded as “no binding”.

“Myc-SPOP-W131C (from UniProt O43791 1-374)”: the binding result in assay [1] was “no binding”.

“Myc-SPOP (SPOP-WT, full-length) (from UniProt O43791 1-374)”: the binding result in assay [2] and in assay [1] was “binds” throughout.

Consider “Myc-SPOP-S119N (from UniProt O43791 1-374)”, for which the binding entry in assay [1] is “binds”.

For the molecule “Myc-SPOP-K134N (from UniProt O43791 1-374)”, the binding entry in assay [1] is “binds”.

Turning to “Myc-SPOP-Y87N (from UniProt O43791 1-374)”, the binding result in assay [1] is “binds”.

As for “endogenous SPOP (C4-2 cells) (from UniProt O43791 1-374)”, in assay [3], the binding result is recorded as “binds”.

Consider “Myc-SPOP-F133L (from UniProt O43791 1-374)”, for which the binding entry in assay [1] is listed as “no binding”.

Take “Myc-SPOP-F133V (from UniProt O43791 1-374)”: the binding result in assay [1] is on record as “no binding”.

B1: endogenous DEK (C4-2 cells) (protein, UniProt P35659 1-375)
chain: MSASAPAAEGEGTPTQPASEKEPEMPGPREESEEEEDEDDEEEEEEEKEKSLIVEGKREKKKVERLTMQVSSLQREPFTIAQGKGQKLCEIERIHFFLSKKKTDELRNLHKLLYNRPGTVSSLKKNVGQFSGFPFEKGSVQYKKKEEMLKKFRNAMLKSICEVLDLERSGVNSELVKRILNFLMHPKPSGKPLPKSKKTCSKGSKKERNSSGMARKAKRTKCPEILSDESSSDEDEKKNKEESSDDEDKESEEEPPKKTAKREKPKQKATSKSKKSVKSANVKKADSSTTKKNQNSSKKESESEDSSDDEPLIKKLKKPPTDEELKETIKKLLASANLEEVTMKQICKKVYENYPTYDLTERKDFIKTTVKELIS
For the molecule B1, the binding entry in assay [4] was “binds”.

B2: Myc-ATF2 (protein, UniProt P15336 1-505)
chain: MKFKLHVNSARQYKDLWNMSDDKPFLCTAPGCGQRFTNEDHLAVHKHKHEMTLKFGPARNDSVIVADQTPTPTRFLKNCEEVGLFNELASPFENEFKKASEDDIKKMPLDLSPLATPIIRSKIEEPSVVETTHQDSPLPHPESTTSDEKEVPLAQTAQPTSAIVRPASLQVPNVLLTSSDSSVIIQQAVPSPTSSTVITQAPSSNRPIVPVPGPFPLLLHLPNGQTMPVAIPASITSSNVHVPAAVPLVRPVTMVPSVPGIPGPSSPQPVQSEAKMRLKAALTQQHPPVTNGDTVKGHGSGLVRTQSEESRPQSLQQPATSTTETPASPAHTTPQTQSTSGRRRRAANEDPDEKRRKFLERNRAAASRCRQKRKVWVQSLEKKAEDLSSLNGQLQSEVTLLRNEVAQLKQLLLAHKDCPVTAMQKKSGYHTADKDDSSEDISVPSSPHTEAIQHSSVSTSNGVSSTSKAEAVATSVLTQMADQSTEPALSQIVMAPSSQSQPSGS
For the molecule B2, in the assay with FLAG-SPOP (293T), the binding entry was “binds”.

B3: endogenous ATF2 (C4-2 cells) (protein, UniProt P15336 1-505)
chain: MKFKLHVNSARQYKDLWNMSDDKPFLCTAPGCGQRFTNEDHLAVHKHKHEMTLKFGPARNDSVIVADQTPTPTRFLKNCEEVGLFNELASPFENEFKKASEDDIKKMPLDLSPLATPIIRSKIEEPSVVETTHQDSPLPHPESTTSDEKEVPLAQTAQPTSAIVRPASLQVPNVLLTSSDSSVIIQQAVPSPTSSTVITQAPSSNRPIVPVPGPFPLLLHLPNGQTMPVAIPASITSSNVHVPAAVPLVRPVTMVPSVPGIPGPSSPQPVQSEAKMRLKAALTQQHPPVTNGDTVKGHGSGLVRTQSEESRPQSLQQPATSTTETPASPAHTTPQTQSTSGRRRRAANEDPDEKRRKFLERNRAAASRCRQKRKVWVQSLEKKAEDLSSLNGQLQSEVTLLRNEVAQLKQLLLAHKDCPVTAMQKKSGYHTADKDDSSEDISVPSSPHTEAIQHSSVSTSNGVSSTSKAEAVATSVLTQMADQSTEPALSQIVMAPSSQSQPSGS
Turning to B3, the binding result in assay [4] was “binds”.
